Sequences with one replicate were seen in a single cluster, so their values are uncertain.
tested on: ATP; experiment: switch fluorescence ratio, 500 uM ATP over buffer (Cy3 cluster intensity, sum of 5 cycles each) (fold (ratio)); higher = stronger signal-on switching upon ATP binding; sequences stand for … in TCGTCGGCAGCGTCAGATGTGTATAAGAGACAGTTTTTTTTTTTTTTTTTTTTTTTTT…TC; conditions: aptamer strand: ATP DNA aptamer (quencher-CACCTGGGGGAGTATTGCGGAGGAAGG + anchor), 100 nM annealed; ATP concentration: 500 uM; one replicate
Method in brief: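 The fluorescence ratio divides summed target-cycle Cy3 intensity by summed buffer-cycle Cy3 intensity for each cluster and is averaged per switch-domain sequence. Cy3-labelled switching-strand clusters on a modified Illumina MiSeq flow-cell were annealed to 100 nM quencher-labelled ATP aptamer, then imaged in selection buffer and again after 15 min with 500 uM ATP at 22 °C. Five such cycles were run, with NaOH stripping and re-annealing between them, and clusters outside 100-1000 RFU were excluded.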
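Also: ATP exposure 15 min at 22 °C before imaging.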

Row | Sequence | switch fluorescence ratio
1 | GAACCGCTCG | 1.12
2 | TGATTTTGAC | 0.99
3 | TGTTTATATG | 0.943
4 | TGGAGCACA | 2.15
5 | TATTCCAGAT | 1.01
6 | AAGACACGTC | 0.932
7 | AGTATCAATT | 0.983
8 | GTTATATCG | 1.02
9 | TACAGATATG | 1
10 | TATATCCCGG | 0.977
11 | ATGGGCACAC | 1.01
12 | CATCTACAGT | 1.03
13 | GATGTAGTTG | 0.996
14 | CTTGAGCAGA | 1.13
15 | TAATGCCCGG | 1.03
16 | GACACCTTTT | 1.06
17 | CTGCTGCACT | 1.19
18 | TGGAGCGGCG | 1.02
19 | TCGGGTTGCT | 0.926
20 | CGTGGCATTA | 1.11
21 | TAATCGTATA | 0.97
22 | TAATGCTGAA | 1
23 | TTTGGTTGCA | 1.04

Row | Sequence | switch fluorescence ratio
24 | GCCCGTCATG | 0.999
25 | CCCATCCCGC | 1.51
26 | GCAAGAATCT | 1.06
27 | AGAGAGGTCG | 1.02
28 | CCAGTTTTGT | 1.01
29 | GGATTTGCTT | 0.944
30 | ACGACCCGAA | 1.13
31 | GCTTATATGG | 0.993
32 | GCTTCGTGTG | 0.999
33 | TGAGCTTCCC | 1.28
34 | GGCTTGTTGT | 1
35 | AGTTGGACTC | 1.01
36 | AAAAGTGGTT | 1.03
37 | GCCAGGCCTG | 0.997
38 | AACAGTTGC | 0.989
39 | ACCTCACAGC | 1.37
40 | AATGTTAAAA | 1.04
41 | AGCTGCTTGG | 1.04
42 | AAATACGGG | 1.05
43 | CTCTGAATGT | 1.06
44 | GAACCTCTGC | 1.44
45 | TTGGCATATA | 1.05
46 | CCAGAGACCT | 1.01

Row | Sequence | switch fluorescence ratio
47 | AAAGCGTGAA | 1.01
48 | TCCACACAGT | 0.989
49 | GTCGGGAAGC | 1.05
50 | AGAGGGACGT | 1
51 | AGTGCTAAGC | 0.963
52 | ATTTGCTGGA | 1.04
53 | TACAAGCCGT | 1.1
54 | CAGGCATCAC | 1.22
55 | CAGCTAGTAT | 0.984
56 | CGGCCCATGG | 1.02
57 | GCCAGAGAAG | 0.985
58 | CGGGGTAGGA | 0.965
59 | AAGGTATGTA | 0.98
60 | TCAGAGCGG | 1.04
61 | GGTAGGTACG | 0.966
62 | TGAGGCCGGA | 0.962
63 | GGCGTCGACA | 1.03
64 | TGCAGCGGGT | 1.04
65 | TTAAAGGTAG | 1.04
66 | GGGGACGTGC | 1
67 | GCTAAAGTTG | 0.931
68 | AGTTTTTGCC | 0.968
69 | GAAACATTCT | 1.26

Row | Sequence | switch fluorescence ratio
70 | GCAGACCCGA | 0.988
71 | ATGCAACTC | 1.13
72 | AAATTTACGT | 1.09
73 | CAAGTAAGGT | 1.03
74 | ACAGTTGCAT | 0.996
75 | AGCTAAACCG | 1.04
76 | GTTGAAAG | 1.01
77 | TGGGCATACT | 1.31
78 | CAGTTTCCAA | 1
79 | CTTTTGGGAG | 2.31
80 | GCCGTATCA | 0.978
81 | ACCGCTGGAT | 1.04
82 | TACCTCGCGG | 1.03
83 | TGGGCCAGT | 1.01
84 | TCATCGACTG | 1.02
85 | ACCTCGTATT | 1.01
86 | CAAATGGAGC | 1.03
87 | TTGCGCCTTA | 0.984
88 | GAATAAAATC | 1.02
89 | AGCCATTTTA | 0.974
90 | TCTCGTAAAC | 2.1
91 | CTCATTATTT | 1.01
92 | GTATAAGAGT | 0.986

Row | Sequence | switch fluorescence ratio
93 | ATCAACGAGG | 1.04
94 | TGTGACACGG | 1
95 | CTCCATTCT | 1.02
96 | GCAATGGTCG | 1.17
97 | TAAACGCCG | 1.07
98 | ACGTGTTTT | 0.975
99 | TTTATCGGTT | 0.987
100 | GCCGGTGTTA | 1
101 | CTGACGCCTG | 1.15
102 | CTCATCGTTA | 1.05
103 | CTGGTAGTAC | 1.52
104 | GGGTTACAAT | 1
105 | CGACATCGGG | 0.967
106 | AATTAGCTAA | 1.03
107 | AATTCTTTAT | 0.999
108 | CCGAAATTCG | 1.49
109 | TGAAGCGGTG | 1.05
110 | AATTTCTACG | 1.04
111 | CTTTCCGCTG | 2.39
112 | TCTCGGTACG | 1.11
113 | AATGCCACTG | 1.1
114 | AGGTCAACGA | 0.994
115 | GTCACAGATG | 1.01

Row | Sequence | switch fluorescence ratio
116 | TTCTCCTGGT | 1.01
117 | GAAAATTTCC | 1.16
118 | GTCGAAAAAA | 1.04
119 | TGTGGCATGG | 0.995
120 | TAAAAGACCA | 0.98
121 | GGAAGAACAG | 1.07
122 | AGCAAATTTT | 1.02
123 | CTATGTCC | 0.982
124 | TCGGTGGTGC | 1
125 | ATCCCTGGGG | 1.05
126 | CTTCTTGGCA | 1.09
127 | TGGGCTATC | 1.5
128 | CTTGGCATGC | 1.2
129 | TTGCACTTCA | 1.04
130 | GGTTGACCAT | 1.03
131 | GTTGAATTGA | 1.01
132 | AATTATGCCC | 1.1
133 | GATTTGGCCA | 0.948
134 | TAGCTGCACG | 1.02
135 | AAAAAATTC | 1.02
136 | CTGCGTCAG | 0.995
137 | TATTTTGGAT | 0.983
138 | TAAAGTGGG | 0.967

Row | Sequence | switch fluorescence ratio
139 | ATTTTGGCGC | 0.981
140 | CGTCTTCACA | 0.983
141 | GTTCTCAACC | 0.993
142 | TCGGCAACAA | 1.33
143 | TGAGTTGCAG | 1
144 | TTTGCACGGG | 1.03
145 | AGGTCACTTT | 1.01
146 | AACACGTCGA | 1.06
147 | ATTTATGCCT | 1.06
148 | TTTTCCTCCG | 1.35
149 | GATAGCGCCA | 0.998
150 | TCATAGACCG | 1.06
151 | GCTGACTTGA | 0.968
152 | TAGGTAGAG | 0.977
153 | ATATGCAAAA | 1.02
154 | ATGCACCTGA | 1.14
155 | GCCCCCGCGG | 1.22
156 | CAAGAACCGG | 1.01
157 | ACTGATCTTG | 1.04

Reference: the supplement of paper PMC10126150
